# Results reported in the antibiotic and cytotoxicity screens of Wong et al. (2023).
# This is one part of the list.
# System: HepG2
# Assay: cytotoxicity call (relative viability < 0.9)
# Details: 10 µM
row,Structure (SMILES),cytotoxicity call
1,COc1ccc(S(=O)(=O)N[C@@H]2CC[C@H](CC(=O)N3CCC(Cc4ccccc4)CC3)O[C@@H]2CO)cc1,inactive
2,COc1ccc(S(=O)(=O)Nc2ccc3c(c2)C(=O)N([C@H](C)CO)C[C@@H](C)[C@@H](CN(C)Cc2ccccc2)OCCCC[C@@H](C)O3)cc1,inactive
3,CCS(=O)(=O)N1C[C@]2(CN(C2)C(=O)Nc2c(noc2C)C)c2c(n(c3cc(ccc23)OC)C)[C@@H]1CO,inactive
4,COc1cc2c(cc1OC)CN(C(=O)[C@H]1[C@@H]3C(=O)O[C@@H](c4ccccc4)[C@@H](c4ccccc4)N3[C@@H](c3ccc(O)cc3)[C@]13C(=O)Nc1ccccc13)CC2,inactive
5,O=C(C[C@@H]1CC[C@H]2[C@@H](COC[C@@H](O)CN2Cc2ccccc2F)O1)N[C@H]1CCN(Cc2ccccc2)C1,inactive
6,Cc1ccc(S(=O)(=O)Nc2ccc3c(c2)C(=O)N([C@H](C)CO)C[C@@H](C)[C@@H](CN(C)S(=O)(=O)c2cn(C)cn2)O3)cc1,inactive
7,C[C@H](CO)N1C[C@H](C)[C@@H](CN(C)Cc2ccc(Cl)c(Cl)c2)Oc2ccc(NC(=O)C3CCCCC3)cc2CC1=O,inactive
8,C[C@@H]1CCCCO[C@H](CN(C)Cc2ccccc2)[C@H](C)CN([C@@H](C)CO)C(=O)c2cc(NC(=O)NC3CCCCC3)ccc2O1,active
9,Cc1ccc(S(=O)(=O)N(C)C[C@H]2OCCCC[C@H](C)Oc3ccc(NC(=O)Nc4cccc5ccccc45)cc3C(=O)N([C@@H](C)CO)C[C@H]2C)cc1,inactive
10,Cc1noc(C)c1NC(=O)N(C)C[C@@H]1Oc2c(NC(=O)C3CC3)cccc2C(=O)N([C@H](C)CO)C[C@@H]1C,inactive
